Test results reported in the supplement of paper PMC6206098.
± gives the uncertainty stated by the source. Shown are siRNA guide strands that differ only in the seed, positions 2 to 7.

Assays:
[1] = tested on: 3LL; test: cell viability relative to siNT1 control; higher = less toxic; conditions: concentration: 10 nM; 96 h; Mus musculus;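 also: Luminescence-based viability of cells reverse transfected in 384-well plates with lipid-complexed siRNAs built on a non-toxic 19mer backbone whose passenger strand carries 2′-O-methyl groups at positions 1 and 2, triplicates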
[2] = tested on: M565; test: cell viability relative to lipid-only control; HeyA8 human ovarian and H460 human lung cancer; M565 mouse liver and 3LL mouse lung cancer; siNT1 is a non-toxic control siRNA; higher = less toxic; conditions: concentration: 10 nM; 96 h; Mus musculus
[3] = tested on: HeyA8; test: as above; conditions: concentration: 10 nM; 96 h; Homo sapiens
[4] = tested on: H460; test: as above; conditions: concentration: 10 nM; 96 h; Homo sapiens
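For cell viability relative to lipid-only control in this document: reverse lipid transfection in 384-well plates, in triplicate, of duplexes on a non-toxic 19mer backbone with passenger strand 2′-O-methylated at positions 1 and 2, luminescence viability read-out.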

| Sequence | cell viability [1] [%] | cell viability [2] [%] | cell viability [3] [%] | cell viability [4] [%] |
| --- | --- | --- | --- | --- |
| UUUUCGGACAUGUAAACCAAA | 85.9 ± 6 | 69.9 ± 9.7 | 84.3 ± 7.4 | 65.5 ± 4.1 |
| UCCCAAGACAUGUAAACCAAA | 101 ± 11 | 66.9 ± 18 | 77.1 ± 10 | 60.2 ± 6 |
| UUACGGUACAUGUAAACCAAA | 68.2 ± 7.4 | 101 ± 22 | 73.7 ± 7.1 | 46.7 ± 4.8 |
| UCUAAGGACAUGUAAACCAAA | 97.8 ± 15 | 59.3 ± 10 | 82.3 ± 9.4 | 50.9 ± 3.4 |
| UCCAUCUACAUGUAAACCAAA | 60.6 ± 10 | 20.3 ± 5.5 | 19.9 ± 1.2 | 40.1 ± 2 |
| UUAUAAAACAUGUAAACCAAA | 105 ± 4.1 | 69.4 ± 5.7 | 104 ± 1.1 | 82.5 ± 6.7 |
| UUUGCGCACAUGUAAACCAAA | 94.5 ± 9.7 | 62 ± 11 | 80.5 ± 7.2 | 90.8 ± 10 |
| UACGUCCACAUGUAAACCAAA | 19.2 ± 2.3 | 7.34 ± 1.9 | 29.9 ± 3.9 | 36 ± 1.6 |
| UAUGCGCACAUGUAAACCAAA | 32.2 ± 2.7 | 119 ± 2.1 | 85.6 ± 6 | 63.7 ± 3.8 |
| UUCUGUUACAUGUAAACCAAA | 24.4 ± 8.1 | 23.7 ± 5.8 | 71.4 ± 6 | 51.9 ± 7.3 |
| UAGCCUUACAUGUAAACCAAA | 49.7 ± 3 | 16.6 ± 1.1 | 48.2 ± 7.4 | 52.9 ± 4 |
| UUUAGAAACAUGUAAACCAAA | 105 ± 9.5 | 97.4 ± 10 | 101 ± 10 | 105 ± 5.8 |
| UCGAUCUACAUGUAAACCAAA | 96.5 ± 22 | 72.8 ± 9.5 | 81.4 ± 4.5 | 74 ± 6.7 |
| UUGUAGCACAUGUAAACCAAA | 12.5 ± 5.3 | 16.4 ± 1.9 | 39.5 ± 3.4 | 48.3 ± 7.3 |
| UUGUUGCACAUGUAAACCAAA | 53.3 ± 6.8 | 42.1 ± 10 | 81.6 ± 8 | 76.3 ± 6.1 |
| UCAGGCUACAUGUAAACCAAA | 40.4 ± 9.4 | 19.2 ± 6.3 | 14.2 ± 1.2 | 50.7 ± 7.6 |
| UUAUGCCACAUGUAAACCAAA | 12 ± 4.1 | 10.4 ± 2.9 | 9.05 ± 0.98 | 13.7 ± 1.2 |
| UAUCUACACAUGUAAACCAAA | 83.9 ± 9.7 | 97.5 ± 3.5 | 94.3 ± 4.9 | 61 ± 2.2 |
| UGACUGGACAUGUAAACCAAA | 39.9 ± 2.7 | 25.2 ± 2.3 | 24.2 ± 7 | 31.6 ± 3.1 |
| UGACCUAACAUGUAAACCAAA | 59.4 ± 2.6 | 43.1 ± 3.6 | 86.1 ± 6.1 | 60.2 ± 6.1 |
| UUCUCAUACAUGUAAACCAAA | 85.4 ± 7.5 | 76.8 ± 6.5 | 91 ± 9 | 53 ± 10 |
| UAACCAAACAUGUAAACCAAA | 93.3 ± 3.6 | 69.3 ± 8.9 | 95 ± 16 | 72.7 ± 6.8 |
| UGCGAAGACAUGUAAACCAAA | 93.2 ± 13 | 62.3 ± 3.9 | 77.5 ± 4.7 | 94.2 ± 12 |
| UGCGGGCACAUGUAAACCAAA | 25 ± 8 | 26.3 ± 1.2 | 2.74 ± 0.45 | 14 ± 1.6 |
| UAGACACACAUGUAAACCAAA | 75.5 ± 8.2 | 27.2 ± 5.1 | 67.6 ± 1.2 | 60.3 ± 9.1 |
| UAUACAUACAUGUAAACCAAA | 119 ± 20 | 116 ± 32 | 108 ± 7.9 | 102 ± 5 |
| UCGUUGGACAUGUAAACCAAA | 47.8 ± 8.4 | 22 ± 6 | 29.1 ± 1.5 | 51 ± 1.6 |
| UUUCCAUACAUGUAAACCAAA | 91.5 ± 4.1 | 98.3 ± 15 | 79.3 ± 2.3 | 68.8 ± 8.2 |
| UCUUCAAACAUGUAAACCAAA | 93.6 ± 15 | 78.1 ± 15 | 84.9 ± 8.2 | 68.1 ± 12 |
| UAAGUGAACAUGUAAACCAAA | 86.9 ± 6.6 | 59.5 ± 12 | 81.7 ± 15 | 58.1 ± 2.2 |
